This is one part of the list. At the low end of the ranking the order means little.
What follows are sequences tested against T1, ELK1 (UniProt P19419) (assay: custom PBM). Conditions: custom protein-binding microarray; buffer, salt, pH and temperature not stated; high values mean tight binding; double strand, one strand shown.
T1 sequence: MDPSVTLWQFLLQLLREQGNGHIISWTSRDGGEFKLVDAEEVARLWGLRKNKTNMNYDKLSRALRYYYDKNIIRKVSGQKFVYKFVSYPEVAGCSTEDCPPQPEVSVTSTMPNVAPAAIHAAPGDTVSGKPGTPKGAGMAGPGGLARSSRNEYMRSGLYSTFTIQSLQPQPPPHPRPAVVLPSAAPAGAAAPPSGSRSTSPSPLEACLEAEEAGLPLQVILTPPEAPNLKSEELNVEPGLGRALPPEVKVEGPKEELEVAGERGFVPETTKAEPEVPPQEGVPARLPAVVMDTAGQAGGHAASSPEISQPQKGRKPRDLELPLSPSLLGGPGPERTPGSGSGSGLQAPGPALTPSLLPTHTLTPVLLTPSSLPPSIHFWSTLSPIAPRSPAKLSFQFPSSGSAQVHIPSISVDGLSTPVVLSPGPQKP

Sequence	binding signal (log fluorescence intensity)
CACAATTTTTACAGTATTGTAGCACGCGTAACTCCTGTCTTGATTCGCTTGACGCTGCTG	8.73
GCTGCTGCGGTGCATACCACACCGGATGTGACCCCGGTCTTGATTCGCTTGACGCTGCTG	10.3
GATTAATTTCTGCCCTTATTCGCTCGTGCCATAACAGTCTTGATTCGCTTGACGCTGCTG	8.78
CTGGGACTTGACCCAACTCTGCCACGTGTGTCGTTTGTCTTGATTCGCTTGACGCTGCTG	8.8
GCTGCTGCGGTGCATACCCCACCGGATGGGACCCCGGTCTTGATTCGCTTGACGCTGCTG	9.27
GTGTATAGGAACCCATCCAACACACGTGTTAAAATGGTCTTGATTCGCTTGACGCTGCTG	8.93
GTGTATAGGATCCCATCAAACACACGTGTTAAAATGGTCTTGATTCGCTTGACGCTGCTG	8.96
CGGAAGTGTCGTAAACGTCGGATCTCCGGTTCTTCTGTCTTGATTCGCTTGACGCTGCTG	9.32
CACAATTTTTAGAGTAATGTAGCACGCGTAACTCCTGTCTTGATTCGCTTGACGCTGCTG	8.9
CAGCATAGGACTTCTTCCCTGAAGCAATTGATAACCGTCTTGATTCGCTTGACGCTGCTG	8.91
GGAAAAAGGCCAAGGGTAACACCGGAAGTGGGCTTAGTCTTGATTCGCTTGACGCTGCTG	11
CAGCATAGGACTTCTTCCCTGAAGCTATTGATAACCGTCTTGATTCGCTTGACGCTGCTG	8.84
GATTAATTTCTGCCCTTATTCGCGCGTGCCATAACAGTCTTGATTCGCTTGACGCTGCTG	8.86
TAAAGGGAAGGCGGTTGTGGTAGTTCCGGGTATTAAGTCTTGATTCGCTTGACGCTGCTG	11.5
TCCGGCTAACAGCTCCACCCACTTCAGGCCTTGTAGGTCTTGATTCGCTTGACGCTGCTG	8.89
TACTGACTTATATATGGGAATGCACATGAATAGACCGTCTTGATTCGCTTGACGCTGCTG	9.03
CGGAAGTGTCGTAAACCTCGGATATCCGGTTCTTCTGTCTTGATTCGCTTGACGCTGCTG	12.2
TAAAGGGAAGACGCTTGTGGTAGTTCCGGGTATTAAGTCTTGATTCGCTTGACGCTGCTG	11
CTGGGACTTGGCCCAACTCTGCCACGTGGGTCGTTTGTCTTGATTCGCTTGACGCTGCTG	8.95
TGTCGGGTAAGGGCATGTAGATCACGTGAATGAAAAGTCTTGATTCGCTTGACGCTGCTG	8.92
GTGTATAGGATCCCATCCAACTCACGTGTTAAAATGGTCTTGATTCGCTTGACGCTGCTG	8.85

Sequence	binding signal (log fluorescence intensity)
CGGAAGTGTCGTAAACGTCGGATATCCGGATCTTCTGTCTTGATTCGCTTGACGCTGCTG	11.8
CTGGGACTTGACCCAACTCTGCCACGTTGGTCGTTTGTCTTGATTCGCTTGACGCTGCTG	8.98
CACAATTTTTACAGTAATGTAGCACGCGTAACTCCAGTCTTGATTCGCTTGACGCTGCTG	8.83
CAGCATAGGAGTTCTTCCCTGAAGCAATTGATAACCGTCTTGATTCGCTTGACGCTGCTG	8.66
TCCGCCTACCAGCTCCACCCACTTCAGGCCTTGTAGGTCTTGATTCGCTTGACGCTGCTG	8.86
GATTAATTACTGCCCTTATTCGCACGTGCCATAACAGTCTTGATTCGCTTGACGCTGCTG	8.85
CGGAAGTGTCGTAAACGTCGGATATCCGATTCTTCTGTCTTGATTCGCTTGACGCTGCTG	11.1
GCTGCTGCGGTGCATACCCCACCGGGTGTGACCCCGGTCTTGATTCGCTTGACGCTGCTG	8.9
GATTAATTTATGCCCTTATTCGCACGTGCCATAACAGTCTTGATTCGCTTGACGCTGCTG	8.81
GGAAAAAGGCTCAGGGTAACACCGGAAGTGGGCTTAGTCTTGATTCGCTTGACGCTGCTG	10.9
CTGAAGTGTCGTAAACGTCGGATATCCGGTTCTTCTGTCTTGATTCGCTTGACGCTGCTG	12.3
GGATAAAGGCCCAGGGTAACACCGGAAGTGGGCTTAGTCTTGATTCGCTTGACGCTGCTG	10.8
TGTCCGGTAAGGGAATGTAGATCACGTGAATGAAAAGTCTTGATTCGCTTGACGCTGCTG	8.96
TCCGGCTACCAGATCCACCCACTTCAGGCCTTGTAGGTCTTGATTCGCTTGACGCTGCTG	8.95
TCCGGCTACCAGCTCCACCCACTTCAGGCCTTGCAGGTCTTGATTCGCTTGACGCTGCTG	9.06
GGAAAAAGGCCCAGGGTAACACCGGAAGTGGGATTAGTCTTGATTCGCTTGACGCTGCTG	10.9
TCCGGCTACCAACTCCACCCACTTCAGGCCTTGTAGGTCTTGATTCGCTTGACGCTGCTG	8.83
GTGTATAGGATCCCATCCAACACACGTGTTAATATGGTCTTGATTCGCTTGACGCTGCTG	8.92
CACAATTTTTACAGTAATATAGCACGCGTAACTCCTGTCTTGATTCGCTTGACGCTGCTG	8.92
GGAAAAAGGCCCAGGGTAACACCGGAAGTCGGCTTAGTCTTGATTCGCTTGACGCTGCTG	10.7

Source: publication PMC6602471
